Consider two molecules from PMC10348673 (Science Advances, 2023).

The target in one assay is T1, RIT1 A57G (17 to 197) (UniProt Q92963 partial chain, A57G).
T1 construct: 15N-labelled or unlabelled in the NMR; A glycine may be left at the N-terminus after TEV cleavage (surmised); source: E. coli, purified (IMAC, TEV digest, second IMAC, SEC); not shown: His6, N-terminal, cleaved; MBP, N-terminal, cleaved
The experiment in a line: ITC; MicroCal PEAQ-ITC; 300 μM RAF RBD in the syringe titrated onto 100 μM RIT1 (GMPPNP-bound) in the cell; 20 mM Hepes, 150 mM NaCl pH 7.4, 5 mM MgCl2, 1 mM TCEP; average of three experiments. The following applies: both partners purified.

The target in another assay is T2, RAF1-nanoLuc (UniProt P04049).
T2 construct: RAF1 (CRAF), BRET donor fusion; also called RAF1-nanLuc; RAF-nanoLuc (donor); source: HEK293T, transfected, in intact cells
As to the kind of experiment: FRET or BRET; nanoBRET in intact HEK293T cells; mVenus-RIT1 acceptor titrated (0 to 1000 ng DNA), RAF-nanoLuc donor constant; BRET50 from non-linear fit. To be noted: partners not purified.

Chain of RIT1 A57G (17 to 197) (Q92963 17-197 A57G): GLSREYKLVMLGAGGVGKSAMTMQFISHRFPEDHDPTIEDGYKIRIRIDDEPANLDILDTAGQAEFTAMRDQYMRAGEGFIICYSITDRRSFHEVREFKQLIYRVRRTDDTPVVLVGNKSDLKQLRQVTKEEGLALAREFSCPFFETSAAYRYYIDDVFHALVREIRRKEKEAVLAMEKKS

B1: BRAF-RBD ([…]) (domain or fragment)
chain: not shown
notes: A glycine may be left at the N-terminus after TEV cleavage (surmised); also called BRAF ([…]); source: E. coli, purified (IMAC, TEV digest, second IMAC, SEC); not shown: His6, N-terminal, cleaved; MBP, N-terminal, cleaved
Regarding B1, the binding result with RIT1 A57G (17 to 197) is “binds”.

B2: mVenus-RIT1 A57G (natural protein)
chain: not shown
notes: RIT1 A57G, BRET acceptor fusion; source: HEK293T, transfected, in intact cells
As to B2, in the assay with RAF1-nanoLuc, the “fold tighter than WT RIT1 (by BRET50)” value was about 10 fold.
